# The supplement of paper PMC4967469
# Lines with a small IC50 respond at low doses; a limit (>, <) means that the fit lies beyond the doses tested. The AUC spans the tested range (256-fold, ending at the top dose) of the same fit: 1 means no effect, lower means more sensitive. For some assays here: The top dose, if marked as inferred, was calculated from the reported fits. For some assays here: An entry number marks a drug with two screens in the source, which often give different values.
# What was measured:
# Assay in all cases: Viability of human cancer cell lines after 72 h of drug (GDSC screen)
# VNLG/124 = compound: CCCC(=O)OCc1ccc(OC(=O)/C=C(C)/C=C/C=C(C)/C=C/C2=C(C)CCCC2(C)C)cc1 [VNLG/124]; settings: top dose 5.12 µM; top dose inferred
# Protocol: (§1)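 Human cancer cell lines in 384-well plates, medium with 10% serum, drug for 72 h over a 256-fold dose range (nine 2-fold or five 4-fold steps up to the top dose). Adherent lines were fixed and stained with the nucleic acid dye Syto60, suspension lines read with resazurin; signal relative to control wells, capped at 0 and 100%. One two-parameter sigmoid per drug and line, fitted in a mixed model over all curves with the slope shared within a line.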
# LAQ824 = compound: O=C(/C=C/c1ccc(CN(CCO)CCc2c[nH]c3ccccc23)cc1)NO [LAQ824]; settings: top dose 1.024 µM; top dose inferred
# Protocol: as §1
# BX-912 = compound: O=C(Nc1cccc(Nc2ncc(Br)c(NCCc3cnc[nH]3)n2)c1)N1CCCC1 [BX-912]; settings: top dose 10.24 µM; top dose inferred
# Protocol: as §1
# Masitinib = compound: Cc1ccc(NC(=O)c2ccc(CN3CCN(C)CC3)cc2)cc1Nc1nc(-c2cccnc2)cs1 [Masitinib]; settings: top dose 20 µM
# Protocol: as §1
# Bleomycin = compound: Cc1c(N)nc([C@H](CC(N)=O)NC[C@H](N)C(N)=O)nc1C(=O)N[C@H](C(=O)N[C@H](C)[C@@H](O)[C@H](C)C(=O)N[C@H](C(=O)NCCc1nc(-c2nc(C(=O)NCCC[S+](C)C)cs2)cs1)[C@@H](C)O)[C@@H](OC1OC(CO)C(O)C(O)C1OC1OC(CO)C(O)C(OC(N)=O)C1O)c1cnc[nH]1 [Bleomycin]
# Protocol: as §1
# OSI-930 = compound: O=C(Nc1ccc(OC(F)(F)F)cc1)c1sccc1NCc1ccnc2ccccc12 [OSI-930]; settings: top dose 10.24 µM
# Protocol: as §1
# NSC-87877 = compound: O=S(=O)(O)c1ccc2cc(N=Nc3cc(S(=O)(=O)O)c4cccnc4c3O)ccc2c1 [NSC-87877]; settings: top dose 16 µM; top dose inferred
# Protocol: as §1
# [1] = top dose 64 µM, screen: GDSC drug entry 190
# [2] = top dose 50 µM, screen: GDSC drug entry 1378, top dose inferred
Cell Line,AUC (VNLG/124),IC50 (VNLG/124),AUC (LAQ824),IC50 (LAQ824),AUC (BX-912),IC50 (BX-912),AUC (Masitinib),IC50 (Masitinib),AUC (Bleomycin; [1]),IC50 (Bleomycin; [1]),AUC (OSI-930),IC50 (OSI-930),AUC (NSC-87877),IC50 (NSC-87877),AUC (Bleomycin; [2]),IC50 (Bleomycin; [2])
"BC-3 (B-cell lymphoma, suspension)",0.922,> 5.12 µM,0.459,0.0501 µM,0.853,6.73 µM,0.833,11.1 µM,0.138,0.352 µM,0.96,> 10.2 µM,0.982,> 16 µM,,
"CAMA-1 (breast, adherent)",0.955,> 5.12 µM,0.443,0.0431 µM,0.955,> 10.2 µM,0.901,> 20 µM,0.635,10.4 µM,0.941,> 10.2 µM,0.975,> 16 µM,0.964,> 50 µM
"SNU-475 (liver, adherent)",0.987,> 5.12 µM,0.688,0.201 µM,0.956,> 10.2 µM,0.927,> 20 µM,0.858,43.1 µM,0.987,> 10.2 µM,0.981,> 16 µM,,
"HL-60 (acute myeloid leukaemia, suspension)",0.789,2.01 µM,0.321,0.0215 µM,0.651,1.6 µM,0.878,16.7 µM,0.811,29.9 µM,0.936,> 10.2 µM,0.98,> 16 µM,0.949,> 50 µM
"PANC-10-05 (pancreas, adherent)",0.952,> 5.12 µM,0.435,0.0403 µM,0.897,> 10.2 µM,0.879,> 20 µM,0.287,0.834 µM,0.963,> 10.2 µM,0.98,> 16 µM,0.543,4.23 µM
"CHP-134 (neuroblastoma, suspension)",0.92,> 5.12 µM,,,0.594,1.25 µM,0.789,11.6 µM,,,0.971,> 10.2 µM,,,,
"ECC12 (stomach, suspension)",,,,,,,,,,,,,0.947,> 16 µM,,
"A172 (glioma, adherent)",0.987,> 5.12 µM,0.603,0.121 µM,0.829,6.02 µM,0.879,19.3 µM,0.712,15.5 µM,0.96,> 10.2 µM,0.968,> 16 µM,0.571,4.84 µM
"CAL-148 (breast, suspension)",0.974,> 5.12 µM,0.43,0.0419 µM,0.984,> 10.2 µM,0.963,> 20 µM,0.527,4.71 µM,0.946,> 10.2 µM,0.976,> 16 µM,,
"NCI-H748 (small cell lung carcinoma, suspension)",0.977,> 5.12 µM,0.385,0.0283 µM,0.8,6.61 µM,0.957,> 20 µM,0.772,31.8 µM,0.981,> 10.2 µM,0.974,> 16 µM,,
"NK-92MI (lymphoid neoplasm, suspension)",,,0.348,0.025 µM,0.864,7.92 µM,,,0.138,0.33 µM,,,0.953,> 16 µM,,
"Caov-3 (ovary, adherent)",0.991,> 5.12 µM,0.9,> 1.02 µM,0.652,1.6 µM,0.884,17.2 µM,0.686,12.3 µM,0.971,> 10.2 µM,0.983,> 16 µM,,
"SCC-3 (B-cell lymphoma, suspension)",0.995,> 5.12 µM,0.536,0.0781 µM,0.968,> 10.2 µM,0.889,12 µM,0.516,4.37 µM,0.981,> 10.2 µM,0.99,> 16 µM,,
"NCI-H2171 (small cell lung carcinoma, suspension)",0.991,> 5.12 µM,0.443,0.0457 µM,0.477,0.559 µM,0.946,> 20 µM,0.978,> 64 µM,0.978,> 10.2 µM,0.99,> 16 µM,,
"BICR31 (head and neck, adherent)",0.982,> 5.12 µM,0.486,0.0587 µM,0.936,> 10.2 µM,0.909,> 20 µM,0.296,1.06 µM,0.986,> 10.2 µM,0.985,> 16 µM,,
"TE-441-T (rhabdomyosarcoma, adherent)",,,0.721,0.263 µM,0.827,5.92 µM,0.951,> 20 µM,0.766,22.7 µM,0.943,> 10.2 µM,0.978,> 16 µM,,
